Laboratory results: paper PMC4336329 (PLoS ONE, 2015)
Screen size: about 310,000 compounds; about 14,000 (4.5%) showed an effect of 50% or more. Effects have a minus sign here. The list shows a part of the results.

Target: human ether-à-go-go-related gene (hERG) potassium channel (human, UniProt Q12809)
Assay: primary screen, population patch clamp on CHO cells stably expressing hERG
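Also: peak tail current of the secondary pulse compared with the same well before compound.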

Sequence of human ether-à-go-go-related gene (hERG) potassium channel (Q12809 whole entry, looked up): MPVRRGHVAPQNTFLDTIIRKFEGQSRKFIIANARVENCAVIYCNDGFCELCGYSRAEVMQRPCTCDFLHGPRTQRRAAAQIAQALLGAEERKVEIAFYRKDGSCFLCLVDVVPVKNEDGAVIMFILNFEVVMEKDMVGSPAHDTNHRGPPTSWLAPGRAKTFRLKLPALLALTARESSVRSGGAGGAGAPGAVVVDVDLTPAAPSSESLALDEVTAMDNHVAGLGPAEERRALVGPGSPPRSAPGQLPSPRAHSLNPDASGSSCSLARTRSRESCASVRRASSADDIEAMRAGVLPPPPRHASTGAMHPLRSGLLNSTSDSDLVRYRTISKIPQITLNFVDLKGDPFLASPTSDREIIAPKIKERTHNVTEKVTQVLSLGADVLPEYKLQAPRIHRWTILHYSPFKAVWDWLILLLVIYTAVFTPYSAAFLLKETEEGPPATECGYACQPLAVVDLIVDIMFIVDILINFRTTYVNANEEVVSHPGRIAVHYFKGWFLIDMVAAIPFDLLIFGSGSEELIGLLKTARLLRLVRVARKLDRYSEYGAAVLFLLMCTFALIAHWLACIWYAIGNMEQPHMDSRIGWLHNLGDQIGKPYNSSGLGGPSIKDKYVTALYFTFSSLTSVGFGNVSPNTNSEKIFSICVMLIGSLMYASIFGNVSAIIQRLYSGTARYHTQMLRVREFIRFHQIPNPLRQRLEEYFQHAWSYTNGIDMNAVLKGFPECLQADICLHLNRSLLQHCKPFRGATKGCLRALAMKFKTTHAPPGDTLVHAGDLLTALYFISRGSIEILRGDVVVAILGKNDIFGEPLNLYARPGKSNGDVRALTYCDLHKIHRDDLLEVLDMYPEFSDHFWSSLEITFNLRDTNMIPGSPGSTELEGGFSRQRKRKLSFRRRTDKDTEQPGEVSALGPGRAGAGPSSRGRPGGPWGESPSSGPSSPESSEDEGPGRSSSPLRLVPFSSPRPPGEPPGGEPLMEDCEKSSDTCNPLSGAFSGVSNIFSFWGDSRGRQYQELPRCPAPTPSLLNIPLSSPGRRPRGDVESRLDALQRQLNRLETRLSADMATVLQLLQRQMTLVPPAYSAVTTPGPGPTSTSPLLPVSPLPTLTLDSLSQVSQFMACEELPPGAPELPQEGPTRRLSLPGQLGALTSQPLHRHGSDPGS

SMILES	hERG current change (%, negative = inhibition) at 10uM [%]
COc1ccccc1NC(=O)O/N=C(\N)c1ccccc1	-16.5
COc1cc(NC(=O)c2cccc(NC3=NC4CS(=O)(=O)CC4S3)c2)cc(OC)c1OC (stereo not shown)	13.5
CCCc1ccc(OCc2ccc(C(=O)N3CCCC3)o2)cc1	-40.7
CCOc1ccc(CCNC(=O)c2nnc(CS(=O)(=O)c3ccccc3)o2)cc1OCC	3.23
O=C(NCCCN1CCOCC1)Nc1ccc(Cc2ccc(NC(=O)NCCCN3CCOCC3)cc2)cc1	1.19
CCc1nc(SCC(=O)c2ccccc2)c2c(=O)n(C)c(=O)n(C)c2n1	-3.2
COc1ccc(OC)c(S(=O)(=O)NNC(=S)Nc2ccc3c(c2)OCO3)c1	12.7
CCn1cc2nc(SCC(=O)Nc3ccc(OC)c(OC)c3)n(Cc3ccc(OC)cc3)c(=O)c2n1	2.9
CC(=O)NC(Cc1c[nH]c2ccccc12)C(=O)OCC(=O)Nc1cc(C)on1 (stereo not shown)	4.52
CC(C)C(=O)NC(Nc1ccc(S(N)(=O)=O)cc1)C(Cl)(Cl)Cl (stereo not shown)	-1.51
Br.CC(=O)c1sc(Nc2ccc(C)cc2)nc1C	3.98
CCNC(=S)N(Cc1cc2cc(C)ccc2[nH]c1=O)C1CCCC1	-8.06
COc1cc(O)oc1C=Nc1ccc(C(F)(F)F)cc1	-24.4
CC(=O)Nc1ccc(S(=O)(=O)NNc2ccc([N+](=O)[O-])cc2)cc1	5.42
C/C=C(\C)C(=O)N[C@@H](c1ccccc1)[C@@H](O)C(=O)O[C@H]1C[C@@]2(O)[C@@H](OC(=O)c3ccccc3)C3[C@](C)(C(=O)[C@H](O)C(=C1C)C2(C)C)[C@@H](O)C[C@H]1OC[C@@]31OC(C)=O (stereo partly shown)	6.13
CCOC(=O)COc1ccccc1/C=N/Nc1nnc2c3ccccc3n(C)c2n1	10.4
Cc1cc(NC(=O)NC2CCCN2S(=O)(=O)c2ccc(Cl)cc2)no1 (stereo not shown)	-22.8
CNC(=O)C(=O)NCC1OCCN1S(=O)(=O)c1ccc([N+](=O)[O-])cc1 (stereo not shown)	-17.8
COc1cccc(C2c3c(C)nn(-c4ccc([N+](=O)[O-])cc4)c3N=C3C(=O)Nc4ccccc4N32)c1 (stereo not shown)	6.88
Cc1ccccc1-c1cc(C(=O)Nc2sc(C)c(C)c2C(N)=O)c2ccccc2n1	17
COc1ccc(OC)c(CNC(=O)CCc2nc(-c3cccs3)no2)c1	-1.05
CN(C)C1=NCCN1CCC1CCCC1	1.87

SMILES	hERG current change (%, negative = inhibition) at 10uM [%]
CC(=O)/C=C(/C)NC(Cc1c[nH]c2ccccc12)C(=O)O (stereo not shown) [3713680]	-2.95
O=C(Cn1nc(-c2ccccc2)ccc1=O)NCCCN1CCOCC1	1.56
C=CCn1c(Sc2nc(C)cs2)nc2c1c(=O)[nH]c(=O)n2C	4.13
O=C(O)c1cc(N/N=C/c2ccncc2)ccc1Cl	9.7
Cc1ccc([N+](=O)[O-])cc1NC(=O)c1ccc(-c2ccccc2)cc1	5.12
CCOc1cc(C(=O)NC(C)CCc2ccccc2)cc(OCC)c1OCC (stereo not shown)	-3.09
CCO[C@@H]1OC(C(=O)Nc2ccccc2)=C[C@H](c2ccccc2)[C@H]1CCCO	-31.2
COc1ccc(C(=O)NC(=S)NC(C)c2ccccc2)cc1 (stereo not shown)	21.8
CCN(CC)S(=O)(=O)c1ccc(N(C)Cc2ccc(C(F)(F)F)cc2)nc1	3.01
CCCCNCc1nc2ccccc2c(=O)[nH]1.Cl	5.81
Cc1ccc(C(C(=O)NC2CCCC2)N(C(=O)Cc2cccs2)c2ccc(C)c(C)c2)o1 (stereo not shown)	-26.1
Cc1ccc(NC2CCCN(C(=O)c3cnsn3)C2)cc1C (stereo not shown)	5.9
CC1CCN(C(=O)COC(=O)c2cc(Cl)cc(Cl)c2N)CC1	-19.9
O=C1CC(SCc2nc3ccccc3[nH]2)C(=O)N1c1ccc(F)cc1 (stereo not shown)	1.5
Cc1ccccc1NS(=O)(=O)c1ccc(-c2ccc(=O)[nH]n2)o1	-2.13
Cc1cccc(NC(=O)c2cc(NC(=O)c3ccccc3)ccc2N2CCCCC2)c1	1.58
CCCCN(C(=O)Cc1ccc(S(=O)(=O)N2CCOCC2)s1)c1ccccc1	-30.2
Cc1cc(NS(=O)(=O)c2ccc(NC(=O)c3cc(-c4cccnc4)nc4ccc(Cl)cc34)cc2)no1	1.95
COc1ccccc1N1CCN(/N=C(\C)c2ccc(O)cc2)CC1	12.8
NC(=O)C1CCN(C(c2ccccc2Cl)c2nnnn2Cc2ccc3c(c2)OCO3)CC1 (stereo not shown)	-25.8
COc1ccc(Cn2nnnc2C(c2cc3cc(C)ccc3[nH]c2=O)N2CCOCC2)cc1 (stereo not shown)	-50.2
